# Where “and” joins values, the source holds several entries; their conditions need not be identical. Equal values may be shown once. Out of some 100,000 compounds screened, about 250 (0.25%) were called active. This list was built around the results that the source calls inconclusive (neither active nor inactive); the mix of calls is not that of the screen. The call rests on the fitted dose curve; in most records, active means well fitted inhibition curve with a large enough effect; inconclusive means small, poorly fitted or top-dose-only effect; inactive means flat fitted curve, though single readings scatter. Where the call is inconclusive, the potency comes from a doubtful curve fit.
# Target: Alanine aminotransferase 2 (Homo sapiens) (UniProt Q8TD30)
# Sequence of UniProt Q8TD30 (Q8TD30 whole entry, looked up): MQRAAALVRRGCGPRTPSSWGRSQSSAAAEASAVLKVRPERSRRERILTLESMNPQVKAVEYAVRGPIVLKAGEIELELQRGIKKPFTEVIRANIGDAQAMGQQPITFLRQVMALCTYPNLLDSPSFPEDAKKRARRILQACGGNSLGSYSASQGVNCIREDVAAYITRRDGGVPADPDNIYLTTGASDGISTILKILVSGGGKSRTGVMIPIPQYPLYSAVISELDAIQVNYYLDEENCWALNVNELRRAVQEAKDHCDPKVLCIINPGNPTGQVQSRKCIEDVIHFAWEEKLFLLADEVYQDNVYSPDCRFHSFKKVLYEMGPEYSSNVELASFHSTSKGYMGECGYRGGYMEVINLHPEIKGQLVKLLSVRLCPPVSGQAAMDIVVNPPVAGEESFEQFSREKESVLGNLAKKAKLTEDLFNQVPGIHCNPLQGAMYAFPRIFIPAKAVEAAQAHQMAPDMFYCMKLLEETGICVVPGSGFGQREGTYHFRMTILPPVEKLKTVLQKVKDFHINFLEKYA
# Experiment: Primary qHTS assay for inhibitors of Glutamate pyruvate transaminase 2 (GPT2); further: nearly all actives have a fitted effect of over 60% in size
# Conditions: Recombinant GPT2, coupled pyruvate oxidase/HRP Amplex Red fluorescence; series mostly up to 57.7 µM
# Procedure: Assay Provider: Zhenghe John Wang Ph.D.
# Case Western Reserve University, Cleveland OH
# Glutamate pyruvate transaminase 2 (GPT2) catalyzes the reversible transamination of glutamate and pyruvate to provide a-ketoglutarate and alanine. We have optimized an assay for GPT2 enzymatic activity that couples pyruvate formation to detection of fluorescence using an established pyruvate oxidase/horseradish peroxidase / Amplex Red system.
# Screening conditions were 250uM a-KG, 2mM L-alanine, and 10ng/uL GPT2 in […] of solution; 10uL of Amplex reaction mix (outlined below) were added so that final concentrations of Amplex reagents in 50uL were 0.2mM ThPP, 0.2U/mL PO and HRP, and 50uM Amplex.
# NOTE: The volume of GPT2 in the system depends on the activity of it. The activity is different every batch. You need to test the activity before the assay. For full plate assay with automation, plate 20uL of GPT2 buffer to pin into, then add 10uL of GPT2 dilution followed immediately by 10uL of substrate dilution. 2 Columns of the plate were devoted to GPT2 buffer ([…] PH7.5, 0.0001% Tween) + 50uM AOA (known GPT2 inhibitor) to serve as a positive control. Complete the assay as normal. Amplex-red buffer: […] PH7.5, 1 mM EDTA, 1 mM MgCl2.
# 1. Combine a-KG and L-alanine at desired concentrations and incubate for at least 10 minutes at 37C. Stocks of L-alanine and a-KG are diluted in distilled water. However, the stocks were diluted in GPT2 buffer for the assay.
# 2. Prepare GPT2 dilution at the desired concentration in GPT2 buffer.
# 3. Plate 40uL of GPT2 dilution with 40uL of substrate dilution and let incubate for 30 minutes at room temperature.
# 4. Add 20uL of Amplex reaction mix prepared as follows: 1.5uL 200U/mL Horseradish Peroxidase, 200mM Thiamine Pyrophosphate, 200U/mL Pyruvate Oxidase; 7.5uL 10mM Amplex Red; 288uL Amplex Buffer.
# 5. Incubate for 30 minutes at room temperature in the dark, then image using AM_Amplex_Fluorescence on plate reader nearest the window.
# Potency means the concentration at half of the fitted maximal effect; tags describe the fitted curve by direction and shape.
row,Compound,Potency
1,CN1C[C@H](CNC(=O)OCc2ccccc2)C[C@@H]2c3cccc4c3c(cn4C)C[C@H]21,"inconclusive: 39.8 µM [inhibitor, single point]"
2,CCCCCCCCCCCCCCCC[N+](C)(C)C,"inconclusive: 39.8 µM [inhibitor, single point]"
3,O=C(Nc1ccc2n(c1=O)C[C@H]1C[C@@H]2CN(Cc2ccc(F)cc2)C1)c1cccs1,"inconclusive: 56.2 µM [inhibitor, single point]"
4,COc1cc(O)c2c(c1)CCC[C@@H](O)[C@H](O)C(=O)/C=C\C[C@H](C)OC2=O,"inconclusive: 10 µM [inhibitor, partial curve, poor fit]"
5,CN1CCC(N(Cc2ccccc2)c2ccccc2)CC1,"inconclusive: 39.8 µM [inhibitor, single point]"
6,O=C(O)COCC(=O)N1C[C@@H]2C[C@H](C1)c1c(-c3ccc4ccccc4c3)ccc(=O)n1C2,"inconclusive: 22.4 µM [inhibitor, partial curve]"
7,COc1ccc(-c2cc([C@H]3CN4CC[C@H]3C[C@@H]4CNS(=O)(=O)c3ccccc3)n(C)n2)cc1OC,inactive
8,COP(=S)(OC)Oc1ccc(S(=O)(=O)N(C)C)cc1,"inconclusive: 39.8 µM [inhibitor, single point]"
9,COc1cc2c(cc1OC1CCCC1)NC(=O)C21CCN(C(=O)Cc2ccccc2)CC1,"inconclusive: 50.1 µM [inhibitor, single point]"
10,COc1ccsc1CNCC[C@@]1(c2ccccn2)CCOC2(CCCC2)C1,"inconclusive: 7.08 µM [inhibitor, single point]"
11,O=C(NC[C@H]1C[C@@H]2CCN1C[C@@H]2CN1CCCCC1)Nc1ccsc1,inactive
12,CC[C@@H](CO)NC(=O)[C@@H]1C=C2c3cccc4c3c(cn4C)C[C@H]2N(C)C1,"inconclusive: 25.1 µM [inhibitor, single point]"
13,COc1ccc2c(c1)c(CCN(C)C)cn2S(=O)(=O)c1ccccc1,"inconclusive: 5.01 µM [inhibitor, single point]"
14,Cn1cc(C(=O)N2[C@H]3CC[C@@H]2c2cnc(-c4ccccc4)nc2C3)cn1,inactive
15,CN1C(=O)CN=C(c2ccccc2)c2cc(Cl)ccc21,"inconclusive: 35.5 µM [inhibitor, single point]"
16,Cc1nc(-c2ccccc2)cc([C@H]2CN3CC[C@H]2C[C@@H]3CNC(=O)C2CC2)n1,"inconclusive: 1.12 µM [inhibitor, full curve, poor fit]"
17,c1ccc2c(c1)OCC(C1=NCCN1)O2 (stereo not given),"inconclusive: 3.98 µM [inhibitor, single point]"
18,COc1ccc(C(=O)N2[C@H]3CC[C@@H]2c2cnc(C)nc2C3)c(OC)c1,"inconclusive: 4.47 µM [inhibitor, single point]"
19,CCC(CC)c1cc([C@H]2CN3CC[C@H]2C[C@@H]3CNC(=O)c2ccccc2)nc(-c2ccncc2)n1,"inconclusive: 0.708 µM [inhibitor, full curve, poor fit]"
20,C/C=C(/C)C(=O)O[C@H]1C(C)=C2[C@H]([C@@H]1OC(=O)CCCCCCC)[C@@](C)(OC(C)=O)C[C@H](OC(=O)CCC)[C@@]1(O)[C@H]2OC(=O)[C@@]1(C)O,"inconclusive: 3.55 µM [inhibitor, partial curve, poor fit]"

row,Compound,Potency
1,c1ccc([C@@H]2C[C@H]2NC2CCNCC2)cc1,inactive
2,COc1ccccc1-c1cc([C@H]2CN3CC[C@H]2C[C@@H]3CNC(=O)c2ccco2)n(C)n1,"inconclusive: 56.2 µM [inhibitor, single point]"
3,COc1cc2c(cc1Oc1ccccc1)NC(=O)C21CCN(C(=O)c2cccc(O)c2)CC1,"inconclusive: 39.8 µM [inhibitor, single point]"
4,CN1CCNc2cc(NCc3ccccc3)ncc2C1,"inconclusive: 8.91 µM [inhibitor, full curve]"
5,CSCC(=O)Nc1ccc(=O)n2c1[C@@H]1C[C@@H](CN(C(=O)c3ccc(F)cc3)C1)C2,inactive
6,COc1cc(N2CCN(C)CC2)ccc1N,"inconclusive: 25.1 µM [inhibitor, partial curve, poor fit]"
7,c1ccc(CCCN2CCC3(CCNCC3)C2)cc1,"inconclusive: 28.2 µM [inhibitor, single point]"
8,C[C@]12CC[C@H]3[C@@H](CC=C4C[C@@H](O)CC[C@@]43C)[C@@H]1CC[C@@H]2O,"inconclusive: 39.8 µM [inhibitor, single point]"
9,N#Cc1ccc(C(=O)N2C[C@@H]3C[C@H](C2)c2c(-c4ccccc4F)ccc(=O)n2C3)cc1,"inconclusive: 1.41 µM [inhibitor, full curve, poor fit]"
10,CN1CCN(C(=O)Cc2c[nH]c3ncc(-c4cccc(OC(F)(F)F)c4)cc23)CC1,"inconclusive: 4.47 µM [inhibitor, partial curve, poor fit]"
11,c1ccc2c(c1)Nc1ccccc1S2,"active: 11.2 µM and inconclusive: 8.91 µM [inhibitor, single point]"
12,CC(C)NC(C)Cc1ccc(I)cc1 (stereo not given),"inconclusive: 4.47 µM [inhibitor, single point]"
13,CN(C)CCc1c[nH]c2cccc(O)c12,active: 10 µM
14,CN1CCCCC1Cn1cc(C(=O)c2cc([N+](=O)[O-])ccc2I)c2ccccc21 (stereo not given),"inconclusive: 3.98 µM [inhibitor, single point]"
15,C#C[C@H]1CN2CC[C@H]1C[C@@H]2CNS(=O)(=O)c1ccccc1,"inconclusive: 39.8 µM [inhibitor, single point]"
16,CC12NC(Cc3ccccc31)c1ccccc12 (stereo not given),"inconclusive: 3.98 µM [inhibitor, full curve, poor fit]"
17,CCOC(=O)[C@H]1CN(C(=O)CC(C)(C)C)[C@]2(C)C(=O)N(CC3CC3)c3ccccc3[C@H]12,inactive
18,CC1(N2CCC(n3c([C@@H]4CCCNC4)nc4ccccc43)CC2)CCCCCCC1,"inconclusive: 30.6 µM [inhibitor, single point]"
19,N#Cc1ccc(CN2CCC3(CC2)C(=O)Nc2ccccc23)cc1,inactive
20,NCc1cn(C[C@H]2CC3CCN2C[C@@H]3C(=O)N2CCCC2)nn1 (stereo not given in full),inactive

row,Compound,Potency
1,CC[C@H]1CN2CC[C@H]1C[C@@H]2CNCc1ccc(C(F)(F)F)cc1,"inconclusive: 50.1 µM [inhibitor, single point]"
2,C=CCC1=C(C)C(OC(=O)C2C(C=C(C)C)C2(C)C)CC1=O (stereo not given),"inconclusive: 63.1 µM [inhibitor, single point]"
3,Oc1ccc2c3c1O[C@H]1[C@@H](O)C=C[C@H]4[C@@H](C2)NCC[C@@]341,"inconclusive: 50.1 µM [inhibitor, partial curve, poor fit]"
4,N#CC(C#N)=Cc1ccc(O)c(O)c1,"inconclusive: 28.2 µM [inhibitor, single point] and inconclusive: 39.8 µM [inhibitor, single point]"
5,COP(=O)(OC)OC=C(Cl)Cl,"inconclusive: 7.08 µM [inhibitor, single point]"
6,CCOC(=O)[C@H]1CN(S(=O)(=O)c2ccccc2)[C@]2(C)C(=O)N(CC3CC3)c3ccccc3[C@H]12,inactive
7,CC1=NOC2(CCCN(CC3CCCCC3)C2)C1 (stereo not given),inactive
8,CCCc1nnc(N2C[C@H]3COc4ccccc4C[C@@]3(C(=O)O)C2)s1,"inconclusive: 1.12 µM [inhibitor, full curve, poor fit]"
9,COc1cc2c(cc1CCc1ccccc1)N(C(=O)C(C)C)CC21CCN(C(C)=O)CC1,"inconclusive: 56.2 µM [inhibitor, single point]"
10,CC(C)NC(=O)N1C[C@@H]2C[C@H](C1)c1ccc(-c3cccc(C(F)(F)F)c3)c(=O)n1C2,"inconclusive: 28.2 µM [inhibitor, partial curve, poor fit]"
11,O=C1N(Cc2ccccn2)C[C@H]2CN(C3CCOCC3)CCN12,"inconclusive: 8.91 µM [inhibitor, single point]"
12,CC[C@@H](C)[C@H]1C(=O)O[C@H](C(C)C)C(=O)N(C)[C@@H](C(C)C)C(=O)O[C@H](C(C)C)C(=O)N(C)[C@@H](C(C)C)C(=O)O[C@H](C(C)C)C(=O)N1C,"inconclusive: 8.91 µM [inhibitor, single point]"
13,COc1cc2c(cc1OCC1CC1)NC(=O)C21CCN(C(=O)c2cccc(C#N)c2)CC1,inactive
14,CCC(CC)c1cc([C@H]2CN3CC[C@H]2C[C@@H]3CNC(=O)c2ccc(C)cc2)nc(-c2ccncc2)n1,"inconclusive: 6.31 µM [inhibitor, single point]"
15,CC(C)NC(=O)OC[C@H]1C[C@@H]2CCN1C[C@@H]2c1cc(C2CCCC2)nc(-c2ccncc2)n1,inactive
16,Oc1ccc2[nH]cc(CCCCN3CC=C(c4ccccc4)CC3)c2c1,active: 3.55 µM
17,Cc1ccc(NC(=O)N2[C@H]3CC[C@@H]2c2cncnc2C3)cc1F,inactive
18,Nc1ncnc2c1ncn2[C@@H]1O[C@@H]2COP(O)(=S)O[C@H]2[C@H]1O (stereo not given in full),"inconclusive: 1.41 µM [inhibitor, single point]"
19,COc1cc(C(=O)O[C@H]2[C@@H]3C=CO[C@@H](O[C@@H]4O[C@H](CO)[C@@H](O)[C@H](O)[C@H]4O)[C@@H]3[C@@]3(CO)O[C@@H]23)ccc1O,"inconclusive: 2 µM [inhibitor, full curve, poor fit]"
20,O=C(N[C@@H](COc1ccc2[nH]c(=O)[nH]c2c1)c1ccccc1)c1cccn(Cc2ccc(F)c(F)c2)c1=O,inactive

# From PubChem BioAssay AID1671188 (National Center for Advancing Translational Sciences (NCATS), 2021)
